Data published in patent US20100003244A1 (TRIGEN, published 2010).

Biological target: T1, collagen (type I bovine; BD Bioscience) (bovine, UniProt P02453 162-1217; P02465 80-1117)
T1 construct: Legends that say only immobilized collagen or collagen type 1 for these ELISAs are tied to this molecule; also called immobilized collagen; bovine type I collagen
Experiment: ELISA on plates coated with bovine collagen I, detection with peroxidase-labelled secondary antibody against the Fc part

UniProt P02453, sequence (P02453 162-1217, chain 1 of 2): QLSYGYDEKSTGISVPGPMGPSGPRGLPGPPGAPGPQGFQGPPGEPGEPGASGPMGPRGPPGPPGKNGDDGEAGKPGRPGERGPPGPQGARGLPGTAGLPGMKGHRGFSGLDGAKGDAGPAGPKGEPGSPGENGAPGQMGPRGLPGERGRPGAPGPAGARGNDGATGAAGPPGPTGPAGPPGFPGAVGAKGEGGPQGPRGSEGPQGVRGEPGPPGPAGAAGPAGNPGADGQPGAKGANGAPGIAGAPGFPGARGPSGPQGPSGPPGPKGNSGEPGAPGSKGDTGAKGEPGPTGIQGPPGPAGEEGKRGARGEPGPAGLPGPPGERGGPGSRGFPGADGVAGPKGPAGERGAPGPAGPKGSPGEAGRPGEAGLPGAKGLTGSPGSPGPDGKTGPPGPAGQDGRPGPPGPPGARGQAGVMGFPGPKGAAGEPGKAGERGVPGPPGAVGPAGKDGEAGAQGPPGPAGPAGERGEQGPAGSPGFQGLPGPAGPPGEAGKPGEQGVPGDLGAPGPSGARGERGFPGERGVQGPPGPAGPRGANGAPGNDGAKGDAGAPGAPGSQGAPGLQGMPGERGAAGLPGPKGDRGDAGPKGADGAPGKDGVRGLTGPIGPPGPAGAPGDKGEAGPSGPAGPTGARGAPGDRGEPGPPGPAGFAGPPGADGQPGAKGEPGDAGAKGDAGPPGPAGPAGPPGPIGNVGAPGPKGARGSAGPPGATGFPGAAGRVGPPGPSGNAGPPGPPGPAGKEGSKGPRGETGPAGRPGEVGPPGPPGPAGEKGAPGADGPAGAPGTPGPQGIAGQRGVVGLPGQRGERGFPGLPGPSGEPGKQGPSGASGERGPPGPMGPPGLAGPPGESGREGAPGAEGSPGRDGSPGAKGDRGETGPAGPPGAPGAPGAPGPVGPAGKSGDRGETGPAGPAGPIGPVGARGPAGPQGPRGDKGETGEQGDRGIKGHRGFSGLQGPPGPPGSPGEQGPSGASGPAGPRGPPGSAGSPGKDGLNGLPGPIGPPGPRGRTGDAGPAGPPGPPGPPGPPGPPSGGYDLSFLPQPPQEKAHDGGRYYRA
UniProt P02453, sequence (P02465 80-1117, chain 2 of 2, further chain): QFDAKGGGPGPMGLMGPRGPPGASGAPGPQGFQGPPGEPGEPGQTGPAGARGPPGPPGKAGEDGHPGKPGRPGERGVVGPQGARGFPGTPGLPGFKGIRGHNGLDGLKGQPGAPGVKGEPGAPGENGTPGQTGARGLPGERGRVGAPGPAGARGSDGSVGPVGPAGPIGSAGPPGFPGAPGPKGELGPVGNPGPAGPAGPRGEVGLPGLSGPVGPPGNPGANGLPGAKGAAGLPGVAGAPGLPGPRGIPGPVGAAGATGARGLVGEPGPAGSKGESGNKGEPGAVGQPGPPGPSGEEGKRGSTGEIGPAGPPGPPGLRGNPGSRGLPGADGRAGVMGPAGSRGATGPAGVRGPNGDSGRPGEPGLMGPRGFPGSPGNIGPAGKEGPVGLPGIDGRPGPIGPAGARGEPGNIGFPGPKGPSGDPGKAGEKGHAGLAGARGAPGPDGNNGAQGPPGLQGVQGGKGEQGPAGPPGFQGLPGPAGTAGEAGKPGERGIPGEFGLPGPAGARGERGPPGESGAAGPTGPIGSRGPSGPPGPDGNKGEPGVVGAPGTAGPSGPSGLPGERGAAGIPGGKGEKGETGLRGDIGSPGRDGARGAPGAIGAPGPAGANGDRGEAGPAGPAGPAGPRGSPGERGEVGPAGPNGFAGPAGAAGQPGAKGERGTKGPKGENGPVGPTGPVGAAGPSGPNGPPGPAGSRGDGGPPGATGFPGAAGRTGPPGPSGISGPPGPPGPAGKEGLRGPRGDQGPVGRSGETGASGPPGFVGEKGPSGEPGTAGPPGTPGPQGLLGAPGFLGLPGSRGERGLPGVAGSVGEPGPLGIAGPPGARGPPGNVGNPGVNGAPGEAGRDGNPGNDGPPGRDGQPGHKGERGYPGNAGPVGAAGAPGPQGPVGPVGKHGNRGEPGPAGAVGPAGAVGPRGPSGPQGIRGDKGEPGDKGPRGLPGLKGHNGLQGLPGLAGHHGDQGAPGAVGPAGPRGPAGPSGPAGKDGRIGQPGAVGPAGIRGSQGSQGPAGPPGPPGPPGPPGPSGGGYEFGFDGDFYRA

B1: Fc-GPVI-nt (Fc fusion)
chain: QSGPLPKPSLQALPSSLVPLEKPVTLRCQGPPGVDLYRLEKLSSSRYQDQAVLFIPAMKRSLAGRYRCSYQNGSLWSLPSDQLELVATGVFAKPSLSAQPGPAVSSGGDVTLQCQTRYGFDQFALYKEGDPAPYKNPERWYRASFPIITVTAAHSGTYRCYSFSSRDPYLWSAPSDPLELVVTGTSVTPSRLPTEPPSSVAEFSEATAELTVSFTNKVFTTETSRSITTSPKESDSPAGPARQYYTKGNGGR[gap - human IgG1 Fc and a few adjoining residues]
notes: The entry starts with the GPVI leader; Disulfide-linked dimer of about 160 kDa; made in HeLa cells (adenovirus) or CHO cells; also called GPVI-Fc; GPVI-Fc-dimer
- EC50 (read off the curve): ~1 µg/well
